The supplement of paper PMC3334620
Whole data set: some 33,000 sequences, median “E-score (-0.5 to 0.5)” near -0.012, cut for the highest 2% near 0.27. The list shows a part of the results.

molecular target: T1, Vhr1 (UniProt P40522); assay: PBM E-score (8-mer binding enrichment) (E-score (-0.5 to 0.5)); higher = stronger / more preferred TF binding; most listed sequences are background and not binding sites; details: protein concentration: 200 nM; construct: GST-full length
T1 sequence: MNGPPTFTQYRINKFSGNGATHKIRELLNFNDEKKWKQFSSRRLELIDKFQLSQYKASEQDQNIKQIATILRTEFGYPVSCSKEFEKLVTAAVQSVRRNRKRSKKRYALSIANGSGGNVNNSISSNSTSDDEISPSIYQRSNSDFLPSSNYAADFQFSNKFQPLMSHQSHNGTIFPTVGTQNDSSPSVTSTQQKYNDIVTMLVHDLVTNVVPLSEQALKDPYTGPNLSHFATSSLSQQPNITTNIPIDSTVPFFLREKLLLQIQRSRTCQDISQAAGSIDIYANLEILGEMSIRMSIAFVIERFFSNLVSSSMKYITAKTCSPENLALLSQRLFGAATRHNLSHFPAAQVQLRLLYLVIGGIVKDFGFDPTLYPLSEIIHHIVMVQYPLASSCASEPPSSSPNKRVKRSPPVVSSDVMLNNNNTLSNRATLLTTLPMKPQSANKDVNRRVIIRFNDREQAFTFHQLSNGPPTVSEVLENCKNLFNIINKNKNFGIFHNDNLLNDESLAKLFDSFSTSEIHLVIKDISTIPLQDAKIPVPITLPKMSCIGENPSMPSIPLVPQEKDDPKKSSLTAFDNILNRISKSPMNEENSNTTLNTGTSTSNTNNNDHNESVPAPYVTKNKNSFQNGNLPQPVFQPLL
Procedure: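 Universal 'all 10-mer' protein binding microarrays (Agilent AMADID 015681) probed with GST-tagged S. cerevisiae TFs (full-length or DBD) made by in vitro transcription/translation (PURExpress), about 100-200 nM. Bound TF was detected with fluorescent anti-GST. Each ungapped 8-mer (which stands for itself and its reverse complement) is scored by the PBM enrichment score (E-score), a modified Wilcoxon-Mann-Whitney statistic from -0.5 to +0.5, computed with the Universal PBM Analysis Suite. Scale: above 0.35 generally sequence-specific binding.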

Sequence | PBM E-score
AATTTCGG | -0.24
AAATTTTG | -0.287
AGCACTGC | -0.211
AAGTCAGC | 0.281
AGACTCGA | -0.0333
ATTTGGCG | -0.168
GGTACCAC | -0.0628
GCATAAGA | 0.0244
CTCTGGAC | 0.0126
CTCGGCTA | -0.111
ATAGTACC | 0.148
TAGCCCAA | -0.0151
CAACAAAC | 0.165
GTGCACAC | 0.0632
CTAATCCA | 0.0297
GAACTATC | 0.0026
CAGAACCG | 0.171
CCGCCACC | 0.0179
ACTCTGCG | 0.114
ATAGCGCG | 0.0968
ACACTCTG | 0.141
ACCGAACG | 0.087
GCGCGAAA | -0.00095
GTAAAAAC | -0.0347
GCTCCCTA | -0.16

Sequence | PBM E-score
CCTAAACG | -0.195
GCTCGGAA | -0.0886
AGTTTTAA | -0.156
AGGCTACG | -0.359
GACTTCGC | 0.212
CTGTTTGA | 0.127
CGCTGTTC | -0.093
AATGTAGG | -0.219
CCCTAGAC | -0.206
AGTCCCTG | -0.0472
AGCTGTGG | -0.103
AAGAGTAT | -0.21
AGCACAGC | 0.207
AGGCCGAC | -0.138
TTGGCCAA | -0.126
TAACTCTA | -0.149
GCGCTAGA | -0.0467
CAGAACAC | 0.0862
TGGCTTAA | -0.061
AAGGTTCA | -0.0208
TCGCTAGA | -0.0457
ATGGATCA | 0.146
AAGCCTGG | 0.0432
CCTGTGGC | -0.0931
CAAATCCC | -0.161

Sequence | PBM E-score
CTGTCCGA | -0.127
CACAAGAC | -0.0701
AACAGGCT | -0.0322
CATATCCA | 0.103
ATTCTTTG | 0.0125
ATTAAGGA | -0.105
AGCTGCGA | -0.0901
GCCATTCA | -0.052
GCTGATGA | 0.185
CTAGTGAA | -0.158
CCAGGGAC | -0.101
ATGTCTTC | -0.127
ACCCAAAC | 0.215
ATCCCCAC | 0.122
CAACAGCA | 0.0731
CAAACGAG | 0.0174
ATATTGAA | 0.0791
AATCATAG | 0.329
GACCGGAC | 0.0945
CTCTAATC | -0.015
CACGAGTC | 0.324
ACCTTCGC | -0.0915
CAGCGGAG | 0.00725
CAAAGTGG | -0.0313
AGTACGTA | -0.0558

Sequence | PBM E-score
GGTAGACC | 0.00467
GTGACCGA | -0.0931
GACCGACC | 0.13
AAGAGGCC | -0.218
AGCGCCCT | 0.00481
GTTCGTGA | -0.00585
CAGGTCCA | -0.0638
CTTGCGCC | -0.0393
CACCACTG | -0.00719
ATCGACGA | -0.0477
CCGACTAC | 0.269
ACGAAGCG | -0.0506
ACGAGAGG | -0.112
TACTTCTA | -0.0126
AATACAGA | -0.0844
CGTACATA | -0.0291
ACCCGACT | 0.229
GCGAATCC | 0.0147
AAGCCGAG | -0.0144
AGCGGTCA | 0.0727
TCTATTCA | -0.0224
GGCTGACA | 0.0588
CATTCGGC | 0.035
AACGGGTC | -0.162
AGCAAGAT | 0.0976

Sequence | PBM E-score
GTTTTGTA | 0.146
GACGCGAC | -0.0185
CTCCCTTC | -0.0792
CTCTTGAC | -0.0604
AAAGCCCG | -0.072
AACATTCG | -0.00301
AATTACCG | -0.0559
GTTCAGAA | -0.155
AACAAGAA | -0.0092
AGTGGATG | 0.0884
ACAGACCC | 0.131
TACCTGAA | 0.017
AAAGGTGG | -0.0416
ACGGCCTA | 0.0178
AGATGGCA | -0.049
ACCTGAGC | 0.0548
ACTCAGAT | 0.251
ACGATTAA | 0.09
TCCGCGCA | -0.031
AACTATCA | 0.14
CTGCGCGC | 0.247
GTATTACA | 0.229
CGGTGCCA | -0.221
AACGTACG | -0.209
ACTGCCTG | 0.156

Sequence | PBM E-score
ACGTGAAT | -0.0434
CGTCTACC | -0.153
GCGGCTAC | 0.124
AAGTAGAT | 0.0488
ACGATGCG | -0.0423
CGCTCACG | 0.0319
CCAGTACA | 0.163
ATCTTGAC | 0.0163
AGGGGTTC | -0.119
AATTGGCA | -0.0116
GGTCCAGA | -0.0119
CGTGAATC | 0.2
AGGTGGAC | -0.111
GTTCCGCA | 0.0962
GAACGGTA | -0.136
AATCTCAG | -0.102
GCTTCACA | -0.176
ACTTCTTG | -0.106
AGTCGCAT | 0.224
ATTATGAA | 0.14
GCTCAAAC | -0.0721
GCGAGCAC | 0.0621
GATGTCGC | -0.0292
GATTGGGA | -0.0169
CTCATACC | 0.0653

Sequence | PBM E-score
CGCTAGTA | 0.057
CTGGTGGC | 0.105
CCGCCCCG | 0.365
ATAAAATA | 0.0515
AAACGTCC | -0.191
GTGTTCGA | 0.0696
CGTTTTCA | -0.0454
CGGGAAAA | -0.0969
CCTATAAA | -0.2
GCCGGCGA | 0.0498
AACATTTA | -0.0926
AGCCATGA | 0.228
GGGAGCCC | -0.237
CTGTTGTA | 0.0584
AAAGAACA | -0.189
TAACTTCA | -0.037
CAGATTAG | -0.0795
GACAACAA | 0.145
AGAGATAT | -0.0397
GAGTGCAC | -0.0044
AATTTTCC | -0.108
AGTGAAGA | 0.0113
